# Measurements: PubChem BioAssay AID488969 (Vanderbilt High Throughput Screening Facility, 2010)
# Over roughly 110,000 compounds, “z-score” has its median near -0.1; the highest 2% begin near 2. Some of the results follow.
# Biological target: Metabotropic glutamate receptor 8 (Rattus norvegicus) (UniProt P70579)
# Assay: rat mGluR8 modulators via GIRK flux, primary screen, cell-based, thallium flux, HTS (AID 488969)
# Settings: HEK293 rat mGluR8, GIRK (G protein-gated inwardly rectifying potassium channel) thallium flux, FluoZin2; at 10 µM; stronger effect = higher value; submaximal glutamate (EC20) added with thallium
# Sequence of UniProt P70579 (P70579 whole entry, looked up): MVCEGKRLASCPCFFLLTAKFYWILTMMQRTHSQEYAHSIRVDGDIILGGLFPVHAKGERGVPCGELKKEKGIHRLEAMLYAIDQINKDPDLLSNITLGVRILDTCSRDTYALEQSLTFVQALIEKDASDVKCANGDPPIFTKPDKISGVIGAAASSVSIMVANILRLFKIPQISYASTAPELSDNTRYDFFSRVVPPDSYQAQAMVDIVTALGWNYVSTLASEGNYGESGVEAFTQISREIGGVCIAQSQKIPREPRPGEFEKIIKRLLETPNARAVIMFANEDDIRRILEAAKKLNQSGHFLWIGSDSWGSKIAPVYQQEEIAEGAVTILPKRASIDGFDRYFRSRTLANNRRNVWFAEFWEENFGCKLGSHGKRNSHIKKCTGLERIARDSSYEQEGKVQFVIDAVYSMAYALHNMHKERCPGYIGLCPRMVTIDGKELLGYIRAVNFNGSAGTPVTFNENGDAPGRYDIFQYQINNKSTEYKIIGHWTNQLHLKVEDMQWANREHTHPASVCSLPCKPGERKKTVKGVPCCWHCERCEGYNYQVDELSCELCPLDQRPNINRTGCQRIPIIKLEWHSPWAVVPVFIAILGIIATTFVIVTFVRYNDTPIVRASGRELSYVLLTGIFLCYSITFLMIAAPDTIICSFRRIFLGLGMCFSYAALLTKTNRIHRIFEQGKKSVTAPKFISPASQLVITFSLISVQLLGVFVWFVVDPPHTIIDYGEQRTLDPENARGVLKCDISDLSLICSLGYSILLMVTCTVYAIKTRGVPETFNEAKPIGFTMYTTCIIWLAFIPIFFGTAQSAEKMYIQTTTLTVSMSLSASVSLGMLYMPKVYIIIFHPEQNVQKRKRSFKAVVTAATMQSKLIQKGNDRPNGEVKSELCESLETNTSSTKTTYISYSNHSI
row,Compound,z-score
1,CC(C)C(=O)Nc1ccc(C(=O)c2ccccc2)cc1,-0.299
2,Cc1ccc(NC(=O)Cn2c(=O)n(Cc3ccco3)c(=O)c3ccccc32)c(C)c1,-0.0769
3,COc1ccc(N(C(=O)c2ccn[nH]2)C(C(=O)NC(C)(C)C)c2ccc(F)cc2)cc1 (stereo not drawn),-0.126
4,CCC1CCCCN1S(=O)(=O)c1ccc(S(=O)(=O)N(Cc2cccs2)C2CC2)cc1 (stereo not drawn),0.569
5,Cc1ccc(NC(=S)NNC(=O)c2nn(C)c(C)c2Cl)cc1,-0.106
6,Cc1ccc(CNC(=O)C2CCCN2C(=O)NCc2ccccc2)cc1 (stereo not drawn),0.822
7,COc1ccc(NC(=O)CN2C(=O)C(c3ccccc3)=NC23CCCCCC3)cc1,0.328
8,Cc1ccc(-n2c(=O)c3ccc(C(=O)NCc4ccco4)cc3n(Cc3ccccc3C#N)c2=O)cc1,-0.251
9,CCOC(=O)c1cc(-c2ccc(Cl)cc2)nc2onc(C)c12,-0.423
10,O=C(O/N=C1\CCCc2ccccc21)c1ccc(F)cc1,-0.0145
11,CCOC(=O)/C=C/C(=O)N1CCc2ccccc21,-0.242
12,Nc1cc(=O)nc(SCc2ccccc2)n1Cc1ccco1,-1.15
13,Cc1nc(CCNC(=O)COc2ccccc2)cs1,-0.509
14,Cc1ccc(NC(=O)c2oc3ccccc3c2NC(=O)c2ccc3c(c2)OCO3)cc1,-0.28
15,Cc1csc(Sc2ccc([N+](=O)[O-])cc2C(=O)OCC(=O)NC2CCCC(C)C2C)n1 (stereo not drawn),0.0376
16,CSc1nc(Sc2ccccc2Cl)c2ccccc2n1,-0.101
17,COc1ccc(NC(=O)COC(=O)c2ccc(OCc3c(C)noc3C)cc2)cc1OC,0.107
18,CS/C(=C\[N+](=O)[O-])Nc1ccccc1,-0.76
19,CCc1nc(OCC(=O)c2ccccc2)c(C#N)c2c1COC(C)(C)C2,-0.0279
20,FC(F)(F)c1nc2nncn2c2c1CCCCC2,-0.228
21,COc1cc2c(cc1OC)CN(c1nc(CN3CCCCC3)nc3sc4c(c13)CCCC4)CC2,-0.149
22,CC(=O)Nc1ccc(N(CC(O)Cn2c3ccccc3c3ccccc32)S(=O)(=O)c2ccc(C)cc2)cc1 (stereo not drawn),-0.159
23,Cc1[nH]n(-c2ccc([N+](=O)[O-])cc2)c(=O)c1C=NCCN1CCN(C(=O)c2ccc(F)cc2)CC1,-0.563

row,Compound,z-score
1,COc1cccc(NS(=O)(=O)c2ccc3c(c2)CCCN3C(C)=O)c1,0.213
2,CC1=CC(C)(C)N(C(=O)CSc2nnc(C)s2)c2ccc(C)cc21,-0.304
3,O=C1CC(N(Cc2cccs2)C(=O)Nc2ccccc2)C(=O)N1c1ccc(Cl)cc1 (stereo not drawn),-0.102
4,CCOC(=O)CNC(=O)c1sc2ncnc(N3CCc4ccccc4C3)c2c1C,-0.962
5,O=C(CSC1CC(=O)N(CC(c2ccccc2)c2ccccc2)C1=O)Nc1ccc(Cl)cc1 (stereo not drawn),0.0431
6,CCN(CC)CCCOc1ccc(Cl)c(Cl)c1,0.523
7,CCOc1cc(C2C(C(=O)N3CCCCC3)=C(C)NC3=C2C(=O)CC(C)(C)C3)ccc1O (stereo not drawn),0.026
8,CCOC(=O)N1CCN(c2cc(=O)n(-c3ccc(OCC)cc3)c(=O)[nH]2)CC1,-0.000123
9,CNC(=O)c1ccc(Oc2ccc(C(=O)NC)cc2)cc1,-0.0105
10,CC(C)C(=O)Nc1ccc(NC(=O)c2ccccc2Cl)nc1,-0.115
11,CCc1nnc(NC(=O)CSc2ncnc3scc(-c4ccc(C)cc4)c23)s1,0.0303
12,Cc1cc(C(=O)Nn2c(C3CCCCC3)nc3ccccc3c2=O)ccc1[N+](=O)[O-],0.924
13,CCCC(c1nnnn1CC1CCCO1)N1CCN(c2cc(Cl)ccc2C)CC1 (stereo not drawn),-0.0991
14,Cn1ccnc1SCC(=O)Nc1cc(C(F)(F)F)ccc1N1CCOCC1,-0.568
15,C=CCSc1cc(C)nc2c(-c3ccc(Cl)cc3)c(C)nn12,-0.522
16,O=[N+]([O-])c1ccc(/C=N\N2CCN(c3ccc(Cl)cc3)CC2)cc1,-0.325
17,O=Cc1cnc(N2CCOCC2)nc1,-0.0597
18,Clc1cccc(N/N=C(\Cc2nc3ccccc3[nH]2)c2ccccc2)c1,0.0568
19,CCOC(=O)c1ccccc1NC(=O)CSc1nnnn1C1CCCCC1,0.716
20,c1ccc2c(c1)ncn2CCN1CCCCC1,0.0727
21,CC1=C(C)CS(=O)N(S(=O)(=O)c2ccccc2)C1 (stereo not drawn),0.26
22,COc1ccc(C2C(C(=O)OCC3CCCO3)=C(C)NC3=C2C(=O)CC(c2ccco2)C3)cc1O (stereo not drawn),-0.38
23,CCOc1ccc(-n2nnnc2SCC(=O)N2CCOCC2)cc1,-0.126

row,Compound,z-score
1,COCCN1CN=C(Nc2nc3ccccc3s2)NC1,-0.137
2,Cc1cc(=O)[nH]c(SCC(=O)Nc2ccc(S(=O)(=O)N3CCOCC3)cc2)n1,-0.0702
3,CC(C)NC(=O)c1cc2cc(Br)ccc2oc1=O,-0.497
4,Cc1ccc(C(=O)c2c[nH]c(C(=O)NCCCN3CCOCC3)c2)cc1,-0.221
5,COc1ccc(Cc2nnc(SCC(=O)c3ccc(OC)cc3)o2)cc1,-0.98
6,CCOC(=O)NC(NS(=O)(=O)c1ccccc1)(C(=O)OCC)C(F)(F)F (stereo not drawn),0.0224
7,CCOC(=O)c1ccc(NC(=S)NCCC2=CCCCC2)cc1,-0.19
8,COc1ccc(N2CCN(C(=O)CCNS(=O)(=O)c3cccs3)CC2)cc1,-0.35
9,O=C(/C=C/c1ccccc1)N/C(=C/c1ccccc1)C(=O)N1CCCCC1,-0.109
10,O=C(OCc1nc2scc(-c3ccccc3)c2c(=O)[nH]1)c1cccc([N+](=O)[O-])c1,0.666
11,Cc1ccccc1OCC(=O)OCC(=O)c1ccc(-c2ccccc2)cc1,-0.0383
12,O=C(N/N=C/c1cccc(C(F)(F)F)c1)c1cc2c(s1)-c1ccccc1CC2,-0.0383
13,CCOc1ccccc1N(C(=O)c1ccco1)C(C(=O)NC1CCCC1)c1cccnc1 (stereo not drawn),-0.287
14,CCOc1cc(C)c(-c2onc(C(F)(F)F)c2-c2csc(C)n2)c(O)c1,-0.697
15,S=C(NCc1cccs1)Nc1ccccc1,-0.293
16,Cc1cc(C(C)(C)C)oc1C(=O)N(CC(=O)NC1CCCC1)Cc1ccc(Cl)cc1,0.163
17,CCC12CN3CC(CC)(CN(C1)C3c1c(O)ccc3ccccc13)C2=O (stereo not drawn),-0.25
18,Cc1noc(C)c1C(=O)Nc1ccc2c(c1)CCC2,-0.0214
19,Cn1ncc2nnn(-c3ccccc3)c(=O)c21,-0.44
20,COc1ccc(/C=N/c2c(-c3ccco3)nc3ccccn23)cc1OC,-0.603
21,CCOc1cc(N2CCOCC2)c(OCC)cc1NC(=O)CC12CC3CC(CC(C3)C1)C2,0.741
22,Cc1cc(N2C(=O)C=CC2=O)c([N+](=O)[O-])cc1C,0.497
